Assay results taken from patent US20250051471A1, “Anti-Abcb1 Antibodies” (WILLIAM ROBERT ARATHOON LIVING TRUST DATED AUGUST 29, 2016, priority 2021, published 2025).

Assays:
N6/ADR cells = assay: Cytotoxicity potency assay (antibody titrated, vincristine constant); format: cell-based
Protocol: The relative potency of the samples was evaluated using N6/ADR cells. These cells expressed both ABCB1 and CD47 with the expression of CD47 ˜40-fold higher than ABCB1 as determined by staining with R-phycoerythrin (R-PE) conjugated, commercially available antibodies against ABCB1 (UIC2, Biolegend) and CD47 (CC2C6, Biolegend). This assay also examined the effect of antibodies on vincristine-induced cytotoxicity using the drug-resistant cell line, N6/ADR. However, in this assay format the concentration of vincristine was held constant while the ABCB1 x CD47 BsAbs (or isotype control antibodies) were serially diluted. This assay measured antibody IC50. Lower IC50 meant higher antibody potency.
The potency assay was performed as follows. Cells were plated in 0.05 mL of assay media at 5000 cells/well in white flat bottom 96-well tissue culture plates and incubated overnight at 37° C., 5% CO2. […] An equivalent volume (0.05 mL) diluted antibody/vincristine mixture was transferred to the N6/ADR cells and incubated at 37° C., in 5% CO^2. After 72 hours, plates were removed from the incubator and allowed to equilibrate to room temperature. Viability was assessed using the Promega® CellTiter-Glo® Luminescent Cell Viability Assay according to the manufacturer's recommended protocol.

human Red Blood Cells = assay: Antibody binding to human red blood cells by flow cytometry; format: cell-based; conditions: FIG. 32
Protocol: Antibody binding to human and cynomolgus RBC was assessed by flow cytometry. Normal human and cynomolgus whole blood was obtained from BiolVT. RBC were prepared by centrifugation of whole blood aliquots (0.5 mL) for 5 min at 500xg. Supernatant (plasma) was removed, and RBC washed 3 times in D-PBS+1 mM EDTA. After the final wash, the RBC were resuspended in D-PBS+1 mM EDTA to a final volume of 0.5 mL. Washed RBC were then diluted in flow cytometry buffer (D-PBS+2% FBS+0.05% sodium azide) to 2% and dispensed at […] into 96-well plates. An equivalent volume ([…]) of antibody serially diluted in flow cytometry buffer to 2× final was added to the RBC, and the mixture incubated for 1 hour at room temperature. Next, RBC were washed 3 times with flow cytometry buffer and resuspended in 50 μL of Alexa Fluor®647 conjugated Fab fragment goat anti-human IgG diluted 1:200 in flow cytometry buffer. After 20 minutes at room temperature RBC were washed twice, resuspended in flow cytometry buffer and analyzed using an Invitrogen™ Attune™ NXT flow cytometer. […] Left panel, RBC are gated (R1) based on forward and side scatter. Middle panel, a second gate (R2) is applied to eliminate any remaining doublets or aggregates. Right panel, fluorescence of the R2 gated cells is assessed and a final gate (R3) is set using unstained RBC. Cells falling in the R3 gate are defined as “positive” for binding and reported as the percent (of R2 gated cells) that fall in the R3 gate. The results are presented at percent positive which represents the percent of RBC in the R3 gate.

A2780ADR cells [1] = assay: In vivo anti-tumor effects on A2780ADR multidrug resistance xenograft model; parameters: species or system athymic nude mice
Protocol: Prior to implant cells were washed three times with D-PBS and resuspended in the same. Resuspended cells were mixed with an equal volume of Matrigel and xenografts were established by s.c. injection of 0.5×10^6 tumor cells into 5-8-week-old female athymic nude mice. Tumors were measured three times a week using a calibrated digital caliper, and tumor volumes (TV) were calculated as per the formula: TV=/*L*S*S, where L is the long axis and s is the short axis of the tumor.
Antibody and paclitaxel (or vehicle) were administered i.p. two times per week for two weeks. Paclitaxel or vehicle was dosed four hours after the antibody.

A2780ADR cells [2] = assay: Therapeutic effect against human A2780ADR xenograft tumors in nude mice (Example 10); format: in vivo, athymic nude mice
Protocol: A2780ADR cells were grown in RPMI-1640 supplemented with 10% FBS and 100 nM doxorubicin. Prior to implant cells were washed three times with D-PBS and resuspended in the same. Resuspended cells were mixed with an equal volume of Matrigel and xenografts were established by s.c. injection of 0.5×10^6 tumor cells into 7-8-week-old female athymic nude mice (Charles River).
Tumors were measured three times a week using a calibrated digital caliper, and tumor volumes (TV) were calculated as per the formula: TV=/*L*S*S, where L is the long axis and s is the short axis of the tumor. When mean tumor volumes reached 100-200 mm^3, mice were randomized into 6 treatment groups (n=6): (i) Isotype control hIgG1, 3 mg/kg, (ii) Isotype control hIgG1, 3 mg/kg plus paclitaxel, 20 mg/kg, (iii) 5f9 human IgG1 antibody, 3 mg/kg, (iv) 5f9 human IgG1 antibody, 3 mg/kg plus paclitaxel, 20 mg/kg, (v) 15D3 HIR2/KT14 KbR1/B1.89v1.huL1 (KV2) hmz LC, 3 mg/kg, (vi) 15D3 HIR2/KT14 KbR1/B1.89v1.huL1 (KV2) hmz LC, 3 mg/kg plus paclitaxel, 20 mg/kg.
Antibody and paclitaxel (or vehicle) were administered i.p. two time per week for two weeks. […]
Tumor volumes and body weights were measured twice a week. […] Tumor volume is calculated as per the formula TV=/*L*S*S where L is the long axis and S is the short axis of the tumor. Body weights were recorded before treatment started and were monitored throughout the study. […]

B1: KB1-1420: humanized ABCB1XCD47 bispecific antibody, HIR2/KbR1 Fc, B1.89v1.huL1(KV2) common light chain (antibody)
heavy 1: EVQLVESGGVVVQPGGSLRLSCAASGFTFSRYTMSWVRQAPGKGLEWVATISSGGGNTYYPDSVKGRFTVSRDNSKNSLYLQMNSLRTEDTALYYCARYGAGDAWFAYWGQGTLVTVSSASTKGPSVFPLAPSSKSTSGGTAALGCLVKDYFPEPVTVSWNSGALTSGVHTFPAVLQSSGLYSLSSVVTVPSSSLGTQTYICNVNHKPSNTKVDKRVEPKSCDKTHTCPPCPAPELLGGPSVFLFPPKPKDTLMISRTPEVTCVVVDVSHEDPEVKFNWYVDGVEVHNAKTKPREEQYNSTYRVVSVLTVLHQDWLNGKEYKCKVSNKALPAPIEKTISKAKGQPREPQVCTLPPSREEMTKNQVSLSCAVKGFYPSDIAVEWESNGQPENNYKTTPPVLDSDGSFVLVSKLTVDKSRWQQGNVFSCSVMHEALHNHYTQKSLSLSPG
heavy 2: QVQLVQSGAEVKKPGASVKVSCKASGYTFTNYNMHWVRQAPGQRLEWMGTIYPGNDDTSYNQKFKDRVTITADTSASTAYMELSSLRSEDTAVYYCARGGYRAMDYWGQGTLVTVSSASTKGPSVFPLAPSSKSTSGGTAALGCLVKDYFPEPVTVSWNSGALTSGVHTFPAVLQSSGLYSLSSVVTVPSSSLGTQTYICNVNHKPSNTKVDKRV[human IgG1 Fc with changes omitted]
light: DIVMTQSPLSLPVTPGEPASISCRSSQTIVHSNGNTYLEWYLQKPGQSPQLLIYKVSKRFSGVPDRFSGSGSGTDFTLKISRVEAEDVGVYYCFQASHFPRTFGQGTKLEIKRTVAAPSVFIFPPSDEQLKSGTASVVCLLNNFYPREAKVQWKVDNALQSGNSQESVTEQDSKDSTYSLSSTLTLSKADYEKHKVYACEVTHQGLSSPVTKSFNRGEC
potency increasing cytotoxicity (N6/ADR cells): potency similar to that of the bispecific antibody KBisP1.1
binding to human red blood cells compared to anti-CD47 monoclonal antibody 5F9 (human Red Blood Cells): negligible binding
effect on tumor growth rates (A2780ADR cells [1]; A2780ADR model, Example 9, FIG. 30): significantly affects tumor growth rates; also recorded: significantly effects tumor growth rates
single agent activity (A2780ADR cells [1]; A2780ADR xenograft): efficacious as a single agent
survival (A2780ADR cells [1]; A2780ADR xenograft): significantly improves survival
enhancement of paclitaxel-mediated cell killing (A2780ADR cells [1]; A2780ADR xenograft, with paclitaxel): enhances paclitaxel-mediated cell killing
single agent activity (A2780ADR cells [1]; A2780ADR xenograft, listed as 15D3 HIR2/KT14 KbR1/B1.89v1.huL1 (KV2) hmz LC): efficacious; also recorded: significant single agent activity
dose-dependent single agent activity (A2780ADR cells [1]; at 3 and 1 mg/ml doses): significant dose-dependent single agent activity
therapeutic effect against human xenograft tumors (A2780ADR cells [2]; four-dose regime, nude mice): strong therapeutic effect
effect on subcutaneous ovarian adenocarcinoma tumors combined with paclitaxel (A2780ADR cells [2]; plus paclitaxel, compared to isotype control group): strong therapeutic effect; also recorded: dramatically inhibited the growth

“Also recorded” adds a separate entry of the source.
